Assay results as given in PubChem BioAssay AID1963576 (National Center for Advancing Translational Sciences (NCATS), 2024).
Out of some 46,000 compounds screened, about 60 (0.1%) were called active. About 3% were inconclusive and are not listed. The call rests on the fitted dose curve; in most records, active means well fitted inhibition curve with a large enough effect; inconclusive means small, poorly fitted or top-dose-only effect; inactive means no such curve, though single readings can be large or run the other way. The list shows a part of the results.

Assay: Primary qHTS assay for Inhibitors of ovarian cancer metastasis using an organotypic tumor microenvironment (TME) model. Further: nearly all actives have a fitted effect of over 65% in size.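 On activity change, negative = inhibition: plate controls were DMSO wells for no effect and tomatine positive control wells for full effect.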
Conditions: SKOV3ip1-GFP adhesion/invasion on 3D omental model, fluorescence; series mostly up to 45.8 µM; activity change, negative = inhibition: at the top concentration
Procedure, shortened: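 A 3D layer of primary human omental fibroblasts, mesothelial cells, fibronectin and collagen I, grown 48 hr, received SKOV3ip1-GFP cells in serum-free medium plus compounds at 0.36-46 umol/L. After 2 hr RT and 16 hr 37 C, fixed adherent GFP cells were counted; normalized to DMSO and tomatine.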

Activity change, negative = inhibition, inactive:
COc1ccc(NC(=O)C(=O)NCCc2csc3nc(-c4ccccc4F)nn23)cc1OC 4.61%
COc1ccc(-c2c(C)c3ccc(O)c(CN4CCC(C)CC4)c3oc2=O)cc1OC 2.42%
CC(=O)Nc1ccccc1-c1nc2ccccc2n(C(C)C(=O)Nc2ccccc2C(F)(F)F)c1=O (centres undefined) -0.319%
CCCN(CCC)CCCNC(=O)c1cc2c(=O)n(C)c3ccccc3c2s1 -20.2%
COc1cccc(CNC(=O)c2ccc(-c3nc(CSc4ccccc4)c(C)o3)cc2)c1 -1.36%
Cc1ccc(CNC(=O)c2cc(=O)c3cc(C)ccc3o2)cc1 1.91%
COc1cc(OC)c(OC)cc1/C=C/c1nc2cc3ccccc3cc2c(=O)n1-c1ccccc1Br -21.1%
Cc1cccc(N2CCN(C3=C(c4ccccc4)C(=O)c4ccccc43)CC2)c1C -23.1%
CN1CCN(c2ncnc3c2cnn3-c2cccc(Cl)c2)CC1 3.61%
NC(=O)c1cnccn1 3.19%
Cc1ccc(S(=O)(=O)N2CCN(Cc3ccccc3Cl)CC2)cc1 -9.49%
Cc1ccc(Cn2c(C(=O)O)c(CNCc3ccc(C)o3)c3ccc(C)cc32)cc1 70.8%
CCOC(=O)c1c(NC(=O)c2cc(=O)c3cc(C)ccc3o2)sc2c1CCCC2 -24.3%
Cc1ccc2oc(C(=O)Nc3sc4c(c3C(=O)NCC3CCCO3)CCC4)cc(=O)c2c1 (centres undefined) 2.28%
CCN(CC)c1ccc(NC(=O)CN2CCN(CC(=O)Nc3ccc(Cl)cc3)CC2)cc1 1.63%
O=C(NCCC1=CCCCC1)c1ccc2c(c1)sc1nc(-c3ccc(F)cc3)cn12 4.34%
O=C(NCCc1ccccc1)c1ccc2c(c1)N(Cc1ccc(F)cc1)C(=O)CS2 -5.45%
COC(=O)c1ccccc1NC(=O)c1nc(-c2ccc(C)cc2)n2c1CCCCC2 4.22%
CC(NC(=O)Cn1c(=O)oc2cc(S(=O)(=O)N3CCCCCC3)ccc21)c1ccccc1 (centres undefined) -6.14%
CC(NC(=O)c1cc2c(=O)n3ccccc3nc2n(C(C)C)c1=N)c1ccccc1 (centres undefined) -15.9%
Nc1nc(N)c(N=O)c(OCC2CCCCC2)n1 1.67%
COCCNC(=O)Cn1nc(-c2ccccc2)c2ccccc2c1=O 4.63%
CC(=O)N1c2ccccc2C(=O)C1N1CCN(c2cccc(Cl)c2)CC1 (centres undefined) -2.38%
COc1cc(NC(=O)CN2C(=O)CCc3cc(Br)ccc32)cc(OC)c1OC -10.5%
Cc1ccc(C2=NN(CC(=O)NCCc3ccccc3)C(=O)CC2)cc1 -3.19%
Cc1cccc(OC(=O)CSc2nnc(-c3ccc4c(c3)OCO4)o2)c1C -15.2%
Cc1cn(C)c(CC(=O)NCc2ccc(Cl)cc2)c1C(=O)O 7.31%
COc1cccc(Cn2c(=O)n(CC3CCC(C(=O)NC(C)C)CC3)c(=O)c3sccc32)c1 (centres undefined) 5.03%
COc1ccccc1NC(=O)CC(C)n1nc(C)cc1C (centres undefined) 7.1%
CCOc1ccc(C2c3c(-c4cc(C)ccc4O)n[nH]c3C(=O)N2Cc2cccnc2)cc1OCC (centres undefined) 0.637%
Cc1ccc(N(CC(=O)N2CCN(c3ccc(F)cc3)CC2)S(=O)(=O)c2c(C)noc2C)cc1 0.659%
CC(C)(C)C(=O)NCCc1nc2ccccc2n1CCCCOc1ccccc1 9.28%
Cc1ccc2c(=O)c(C(=O)c3cccc(Cl)c3)cn(CC(=O)NC3CCCCC3)c2n1 1.59%
CCOC(=O)c1ccc(NC(=O)CSc2nc3c(c(=O)[nH]2)CN(Cc2ccccc2)CC3)cc1 4.88%
CCOC(=O)N1CCC(NC(=O)c2c(C)nn(-c3cccc(C)c3)c2-n2cccc2)CC1 -13.1%
COc1ccccc1Nc1ncc2c(n1)CCN(Cc1ccc(C)s1)C2 -2.72%
Cc1cc(F)ccc1NC(=O)CCS(=O)(=O)c1cc2c(cc1C)NC(=O)CO2 -21.3%
CCOc1ccccc1CNCCCSc1nnnn1C -5.66%
O=S(=O)(NCc1ccc(F)cc1)c1ccc(N2CCCCS2(=O)=O)cc1 -5.13%
Cc1ccc(CSc2cn(CC(=O)N3CCCCCC3)c3ccccc23)cc1 -11.3%
CCCN(Cc1cc2cccc(C)c2[nH]c1=O)C(=O)c1cccc(Cl)c1 -1.74%
COc1ccc(C2C=C(c3ccccc3)Nc3nc(NS(=O)(=O)c4ccccc4)nn32)cc1 (centres undefined) 2.83%
CCOC(=O)c1ccccc1NC(=O)CSc1c(C)cnc2c1c(=O)n(C)c(=O)n2C -9.77%
CC(CNC(=O)CCn1c(=O)c2cccn2c2ccc(F)cc21)c1ccccc1 (centres undefined) 5.37%
Cc1cc(C)c(S(=O)(=O)Nc2ccc3oc4c(c3c2)CCCC4)cc1C 0.623%
Cc1ccc(C)c(Cn2c(=O)n(-c3ccc(Cl)cc3)c(=O)c3c4c(sc32)CCC4)c1 0.308%
COc1cccc(NC(=O)c2c(-c3ccc(C)cc3)nnc3ccccc23)c1 2.01%
O=C(Nc1cccc(Cl)c1Cl)c1cc(S(=O)(=O)N2CCCCC2)ccc1F -9.87%
COc1ccccc1N1CCN(c2nc3ccc(C(=O)c4ccccc4)cc3n3c(C)nnc23)CC1 8.47%
CCc1nn(CC(=O)Nc2ccc(C)c(F)c2)c(=O)c2cc3cc(C)ccc3n12 41%
CCCN(Cc1cccs1)C(=O)Nc1cc(C)ccc1OC 3.7%
CC(=O)OC1=CN(Cc2ccccc2)S(=O)(=O)c2ccccc21 -12.6%
COc1ccc(OC)c(S(=O)(=O)NCCc2sc(-c3cccnc3)nc2C)c1 -18.8%
CCCCN1CC(c2nc3ccccc3n2CCCCOc2ccccc2C)CC1=O (centres undefined) -4.51%
CCOc1ccc(-c2nnc(SCC(=O)Nc3ccccc3C(F)(F)F)o2)cc1 3.61%
COc1ccccc1N1CCN(C2C(=O)c3ccccc3N2C(C)=O)CC1 (centres undefined) 25.8%
CCOc1ccc(S(=O)(=O)NCC(c2ccc(N(C)C)cc2)N2CCCC2)cc1 (centres undefined) -1.6%
Cc1ccc(-c2cn3c(n2)sc2cc(C(=O)NCCC4=CCCCC4)ccc23)c(C)c1 1.39%
COCCn1c(CNC(=O)c2cccc(N(C)C)c2)nc2cccnc21 -5.35%
CC(=O)c1ccc(N2CCN(C(=O)C3CCN(S(=O)(=O)c4ccc(Br)s4)CC3)CC2)cc1 -5.32%
COc1cc(OC)c(NS(=O)(=O)c2cc3c(cc2C)NC(=O)CO3)cc1Cl -6.31%
COCCCNC(=O)c1cn(CC(C)C)c(=O)c2c1c1ccccc1n2C -0.919%
Cc1nc2scc(C)n2c(=O)c1S(=O)(=O)Nc1cccc(O)c1 -9.39%
CCCCn1c(=O)n(Cc2ccccc2F)c(=O)c2[nH]c(Cc3ccc(NC(C)=O)cc3)nc21 -22.4%
Cc1ccc(NC(=O)c2nc(S(C)(=O)=O)ncc2N(Cc2ccco2)Cc2ccccc2F)c(C)c1 2.3%
CCOc1cccc2sc(NC(=O)c3ccc(S(=O)(=O)N4CCCc5ccccc54)cc3)nc12 0.289%
Cc1ccccc1S(=O)Cc1ccc(C(=O)NC2CCCCCC2)o1 (centres undefined) 4.87%
Cc1ccc(CCNC(=O)c2ccc3c(=O)n(-c4ccc(C)cc4)c(=O)[nH]c3c2)cc1 -9.79%
Cc1ccc(C)c(NC(=O)Nc2nnc(N(CC(C)C)CC(C)C)s2)c1 -9.43%
CCCOc1ccc(C2c3c(oc4ccccc4c3=O)C(=O)N2c2ccc(C)cn2)cc1OCC (centres undefined) -1.8%
CCOC(=O)c1ccc(CN(Cc2ccc(F)cc2)S(=O)(=O)c2ccc(F)cc2)cc1 -5.88%
Cc1cc2oc(C(=O)Nc3sc4c(c3C(=O)NCc3ccco3)CCC4)cc(=O)c2cc1C 1.78%
Cc1ccc2c(CNCc3cccc(Cl)c3)c(C(=O)O)n(Cc3ccc(F)cc3Cl)c2c1 2.26%
O=C(Cn1cc(SCc2cccc(F)c2)c2ccccc21)N1CCCC1 -1.9%
O=C(CNS(=O)(=O)c1cccs1)N1CCN(c2ccccc2Cl)CC1 0.516%
Cc1c(Cl)cccc1NC(=O)N1CCC(CN2CCCC2)CC1 -4.76%
COc1cccc(-n2nnc3c(sc4nc(C)cc(C)c43)c2=O)c1 0.599%

outcome, inactive:
COc1ccc(C(Nc2ccccn2)c2ccc3ccc(C)nc3c2O)cc1C (centres undefined)
CCn1cc2nc(SCc3ccccc3Cl)n(Cc3ccc(OC)cc3)c(=O)c2n1
COc1cc2c(c(OC)c1)C(c1cccc(F)c1F)CC(=O)N2 (centres undefined)
Cc1cccc(NC(=O)CN2C(=O)C3(SCC(=O)N3c3ccccc3)c3ccccc32)c1 (centres undefined)
CC(C)Cn1cc(NC(=O)NCc2cccc(Cl)c2)c2ccccc2c1=O
COc1ccc(NC(=O)c2cccc(N3CCCS3(=O)=O)c2)c(OC)c1
COc1cc(OC)c(C2CC(=O)Nc3ccc4ccccc4c32)cc1OC (centres undefined)
Cc1ccc(CCNS(=O)(=O)c2ccc3c(c2)C(C(C)C)C(=O)N3)cc1 (centres undefined)
COc1ccc(OC)c(CCNC(=O)CCCn2c(=O)c3cccn3c3ccc(F)cc32)c1
COc1cccc(CNC(=O)Cn2ncc3c(=O)oc4ccccc4c32)c1
COCCCNC(=O)c1ccc(CSc2nc3cccnc3n2Cc2ccc(OC)cc2)cc1
COc1ccc(CCNC(=O)C2CC(=O)N(CCc3ccccc3)C2)cc1OC (centres undefined)
Cc1ccc(-c2onc(C)c2C)cc1S(=O)(=O)NCc1cccs1
COc1ccc(OC)c(CNC(=O)C2CCN(S(=O)(=O)N3CCCCC3)CC2)c1
O=C(c1ccc2c(c1)N(Cc1ccc(Cl)cc1)C(=O)c1ccccc1S2(=O)=O)N1CCCCCC1
Cc1cccc(C)c1Nc1c(-c2ccccc2Cl)nc2cnccn12
O=C(COc1ccc(F)cc1)Nc1ccc2nc(SCC(=O)N3CCCC3)sc2c1
CCOc1ccc(OCC)c(NC(=O)c2nnn(Cc3cc(Br)ccc3OC)c2N)c1
CCN(Cc1ccccc1)C(=O)CCS(=O)(=O)c1cc2c(cc1Cl)NC(=O)CO2
CCOC(=O)c1c(C)[nH]c(C)c1S(=O)(=O)N1CCC(C(=O)N2CCN(c3cccc(C)c3)C(C)C2)CC1 (centres undefined)
Cc1ccc(C(=O)Nc2ccc3nc(SCC(=O)N4CCc5ccccc54)sc3c2)cc1
COc1ccc2oc(=O)c(-c3nc(-c4cc(OC)c(OC)c(OC)c4)no3)cc2c1
